Data as given in article PMC6451091.
The list shows a part of the results. For part of these data: At the low end of the ranking, values are background and their order means little. For part of these data: Measured with an extract: partners may take part in the binding.

Columns and labels:
Conditions in all cases: 20 mM HEPES pH 7.9, 100 mM NaCl, 1 mM DTT, 0.2 mg/mL BSA, 0.02% Triton X-100, 2% milk, 0.4 mg/mL salmon testes DNA; 1 h; temperature not stated; high values mean tight binding; double strand, one strand shown; sequences stand for … in GCCTAGCAC…GTGCTAGGTCTTGATTCGCTTGACGCTGCTG
PU.1 (IVT) = PU.1 (IVT) (UniProt P17947); assay: protein-binding microarray (PBM)
[1] = molecular target: PU.1 (endogenous, THP-1 nuclear extract) (UniProt P17947); assay: nuclear extract protein-binding microarray (nextPBM)
[2] = molecular target: T1, FLI1 (endogenous, THP-1 nuclear extract) (UniProt Q01543); assay: as above
T1 sequence: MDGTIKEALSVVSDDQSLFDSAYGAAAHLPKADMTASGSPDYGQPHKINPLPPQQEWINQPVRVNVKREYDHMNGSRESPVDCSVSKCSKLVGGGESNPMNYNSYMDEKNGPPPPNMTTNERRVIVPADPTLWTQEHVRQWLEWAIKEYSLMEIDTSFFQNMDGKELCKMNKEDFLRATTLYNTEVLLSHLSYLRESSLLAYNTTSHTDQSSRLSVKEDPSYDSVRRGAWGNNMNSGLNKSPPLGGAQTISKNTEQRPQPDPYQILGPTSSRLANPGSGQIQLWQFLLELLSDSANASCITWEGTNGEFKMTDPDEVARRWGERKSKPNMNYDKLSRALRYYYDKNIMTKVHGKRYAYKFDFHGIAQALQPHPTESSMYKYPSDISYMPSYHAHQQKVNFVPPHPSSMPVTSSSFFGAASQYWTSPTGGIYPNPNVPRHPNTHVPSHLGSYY

Sequence | binding signal (PU.1 (IVT)) | binding signal [1] | binding signal [2]
TAAAAGAGGAAGTCTCTTTT | 8.23 z-score | 7.48 z-score | 3.87 z-score
GAAAAGGGGAACTAGAATGA | 7.02 z-score | 6.88 z-score | 2.5 z-score
ACAAAAAGGAACTGTGCCCT | 1.84 z-score | 1.68 z-score | 1.25 z-score
ACAAAAAGGAACTGTGCCCC | 1.82 z-score | 1.55 z-score | 0.392 z-score
AGAAAGGGGAAGTCCAGACT | 7.42 z-score | 6.93 z-score | 3.14 z-score
AATAAGAGGAACTGGCGCAT | 4.36 z-score | 5.04 z-score | 1.27 z-score
AGTTAAGGGAAGTGGCCCAG | 3 z-score | 3.25 z-score | 1.45 z-score
TTAAAGAGGAAGTAGGAGTT | 7.33 z-score | 6.99 z-score | 3.57 z-score
AAATAGAGGAAATGCTTTCT | 4.22 z-score | 4.39 z-score | 2.59 z-score
AAGAAGAGGAACTGGAGTAA | 4.07 z-score | 4.4 z-score | 1.5 z-score
TTTTTAAGGAAGTGCTGTTT | 5.83 z-score | 6.02 z-score | 2.54 z-score
TCCGAGGGGAAGTGTCCATT | 2.98 z-score | 2.9 z-score | 2.06 z-score
ACAAAGAGGAAGTGGGTTCA | 6.84 z-score | 6.78 z-score | 3.85 z-score
AGAAAAAGGAAGTGGATTAA | 5.66 z-score | 6.12 z-score | 3.22 z-score
CAACAGAGGAAGTGGGACAT | 3.15 z-score | 3.3 z-score | 2.69 z-score
AGAAAAAGGAACTGAAGAAC | 3.87 z-score | 3.24 z-score | 1.07 z-score
AAAAAGAGGAAGGGGAAGAA | 6.26 z-score | 6.18 z-score | 2.55 z-score
CTTGGGAGGAAGTGACTGTC | 3.74 z-score | 3.95 z-score | 2.93 z-score
CGAAAGGGCAAGTGCTAAAC | -0.11 z-score | -0.28 z-score | 0.236 z-score

Sequence | binding signal (PU.1 (IVT)) | binding signal [1] | binding signal [2]
CAGAAGGGGAAGTCTTTGTT | 5.44 z-score | 5.01 z-score | 2.52 z-score
TGGATCAGGAAGTGGTTTCC | 3.32 z-score | 3.62 z-score | 3.63 z-score
CCCAAGAGGAAGTGGTAGGC | 4.34 z-score | 5.47 z-score | 2.92 z-score
CAAATGTGGAACTGATGCGG | 2.29 z-score | 2.46 z-score | 0.306 z-score
CAAAGGGGGAAGTGCAACAC | 5.07 z-score | 5.11 z-score | 2.12 z-score
ACAAAAAGGAACTGTGCCGC | 1.9 z-score | 1.82 z-score | 0.856 z-score
TGAGAGAGGAAGTCACTGGG | 3.88 z-score | 4.21 z-score | 2.58 z-score
AAGAAGAGGAACTCCTTCCA | 4.39 z-score | 4.59 z-score | 1.65 z-score
CAAAAGAGGAAGTACAGCCA | 8.06 z-score | 7.19 z-score | 3.97 z-score
AAAAGCAGGAAGTGCCACGT | 4.73 z-score | 5.82 z-score | 3.88 z-score
GATTTGAGGAAATGGAACTT | 3.67 z-score | 3.23 z-score | 2.09 z-score
AAAAAGGGGAAGCCAGAAAT | 5.47 z-score | 6.11 z-score | 2.38 z-score
CAAGAGAGGAAGTCTCCCTA | 3.38 z-score | 3.82 z-score | 2.32 z-score
TAAAGAGGGAAGTGTGACTA | 3.89 z-score | 3.96 z-score | 2.03 z-score
GCCAGGAGGAAGTGGCAACT | 3.62 z-score | 4.15 z-score | 2.51 z-score
AGAAAAAGGAAGTGAACACT | 5.74 z-score | 6.03 z-score | 2.93 z-score
TGAAAGCGGAAGTGCAACCA | 7.48 z-score | 7.1 z-score | 5.42 z-score
GAAGACAGGAAGTAGCCTTT | 3.85 z-score | 3.65 z-score | 4.61 z-score
AGAGACAGGAAGTGCAAGAG | 2.79 z-score | 2.74 z-score | 4.69 z-score

Sequence | binding signal (PU.1 (IVT)) | binding signal [1] | binding signal [2]
TTAATGAGGAAGTGCTGTCA | 6.5 z-score | 6.9 z-score | 2.85 z-score
GGAAAGGGGAAGTGCTAAAC | 7.48 z-score | 7.05 z-score | 3.53 z-score
CAATTGAGGAAGTGGTGGGT | 6.98 z-score | 6.68 z-score | 3.19 z-score
GATAAGGGGAAGTGTATACT | 5.39 z-score | 5.57 z-score | 2.44 z-score
AAAATGAGGAACTGGAAGGT | 6.61 z-score | 6.78 z-score | 2.4 z-score
GTGGAGGGGAAGTGATCTCG | 3.73 z-score | 3.91 z-score | 2.25 z-score
GAAATGAGGAAGTACCTAAA | 8.71 z-score | 7.53 z-score | 4.01 z-score
AAAAAAAGGAACTGGAAAGC | 4.54 z-score | 4.2 z-score | 1.64 z-score
AGAGAGAGGAAGTAATTACT | 5.74 z-score | 4.92 z-score | 2.87 z-score
GAAAGAGGGAAGTGTATCTC | 4.87 z-score | 5.15 z-score | 1.74 z-score
GAAAAGGGGAACTGCCTTGG | 6.46 z-score | 6.62 z-score | 1.86 z-score
ATTTCTGGGAAGTACTGTGA | 2.12 z-score | 1.81 z-score | 0.598 z-score
CGAAAGGGGAAGTGCTGAAC | 7.16 z-score | 7.11 z-score | 3.17 z-score
GGCTGGAGGAAGTGGGGACG | 2.48 z-score | 3.05 z-score | 2.11 z-score
TAGTAGAGGAAGTACTGTGA | 4.25 z-score | 4.15 z-score | 2.38 z-score
CTGTAGGGGAAGTGCCTTGT | 3.75 z-score | 3.62 z-score | 1.92 z-score
AAAACAAGGAACTGGCTAGA | 2.96 z-score | 2.83 z-score | 0.659 z-score
GAAAACAGGAACTCCCATAG | 5.34 z-score | 6.04 z-score | 2.26 z-score
CAAATGAGGAAGTGGAGTCA | 7.9 z-score | 7.26 z-score | 4.27 z-score
